From ChEMBL document CHEMBL4888484, “Replenishing the malaria drug discovery pipeline: Screening and hit evaluation of the MMV Hit Generation Library 1 (HGL1) against asexual blood stage Plasmodium falciparum ,using a nano luciferase reporter read-out” (2022) come the findings set out here.

About 540 (0.36%) of roughly 150,000 compounds showed an effect of 50% or more. The list shows a part of the results.

For the assay, the system named is Plasmodium falciparum. The assay is described as follows: Primary screen in NF54 nanoGlo assay, in single point, at 2uM, 72h; a lower Z score goes with more inhibition. To be noted: timepoint 72 hour. The format is functional, Erythrocyte.
The % Inhibition is the change of the read-out against control, counted positive when it falls. With `Cc1cc(C(=O)N2CCC3(CC2)NC(=O)NC3=O)c2ccccc2n1`, the “% Inhibition” value is -6% and the Z score is given as 0.48.

Turning to `Cc1cc(C)nc(-c2cccc(C(=O)NCCCn3cccn3)c2)n1`, the “% Inhibition” value is 5% and the Z score is listed as -0.78.

Turning to `Cc1ccc(CNS(=O)(=O)c2cc3n(c2)CCN(C)C3=O)cc1`, the “% Inhibition” value is -4% and the Z score was found to be 0.57.

On to `COc1ccc(NS(=O)(=O)c2ccc(-c3ccno3)o2)cc1`, for which the “% Inhibition” value was -5% and the Z score is 0.89.

Regarding `COCCC1(c2noc(C3CCOCC3)n2)CCN(CC2CCCCC2)CC1`, the “% Inhibition” value is reported as 6% and the Z score is reported as -0.8.

Take `O=C(CC1CCCC1)Nc1ccc2[nH]c(=O)[nH]c2c1`: the “% Inhibition” value is recorded as 12% and the Z score is recorded as -1.07.

For the molecule `Cc1cccc(CN2CCC[C@@](CO)(CC3CC3)C2)n1`, the “% Inhibition” value was found to be 10% and the Z score is on record as -0.95.

`CNC(=NC[C@@H](C)Cc1ccc(OC)c(OC)c1)NC`: the “% Inhibition” value is given as -6% and the Z score was 0.6.

As to `Cc1nc2c(N(CCO)Cc3ccccc3)ncnc2o1`, the “% Inhibition” value is reported as -3% and the Z score came out at 0.69.

With `Cc1cc(NC(=O)NCc2ccc(CO)cc2)n(C2CCCCC2)n1`, the “% Inhibition” value was -9% and the Z score worked out at 0.82.

With `CC1CC(C)CN(S(=O)(=O)c2ccc(C(=O)Nc3nc4cc5c(cc4s3)OCCO5)cc2)C1` (centres undefined), the “% Inhibition” value is -1% and the Z score was 0.12.

Take `Cc1ccc(-c2nnc3n2CCCC[C@H]3C2CCOCC2)s1`: the “% Inhibition” value was -13% and the Z score came to 2.52.

Take `COc1ccc(Nc2cc(NCc3nccc(C(F)F)n3)ncn2)c(OC)c1`: the “% Inhibition” value was -13% and the Z score is 2.46.

With `Cc1nc(N2CCOCC2)sc1CNC[C@H]1CN(C)CCO1`, the “% Inhibition” value is on record as 40% and the Z score is listed as -3.35.

`COc1cc(Cl)ccc1C(=O)N1CCC2(CC[C@@H]2O)CC1`: the “% Inhibition” value is on record as -17% and the Z score is 2.15.

In the case of `Cc1nnc([C@H]2CCCN(Cc3cccc4ncccc34)C2)o1`, the “% Inhibition” value is reported as -1% and the Z score is reported as 0.11.

With `Cc1n[nH]c(C)c1CCN(C)C[C@H]1COCCO1`, the “% Inhibition” value was -11% and the Z score was 1.79.

As for `COCCn1cnc2cc(NC(=O)C3CCCCC3)cc(C(=O)N(C[C@H]3CCC(=O)N3)C(C)C)c21`, the “% Inhibition” value was -5% and the Z score came out at 0.9.

Regarding `O=c1[nH]c(NC2CCC2)nc2c1Cc1ccccc1OC2`, the “% Inhibition” value is -13% and the Z score was 1.43.

For the molecule `CCN(C)C(=O)CC1(Cc2nc3cccnc3n2CC(C)C)CCCC1`, the “% Inhibition” value was -12% and the Z score is 1.47.

Consider `CN(C)c1c(CN(C(=O)c2ccccc2F)C2CC2)c(C(F)(F)F)nn1-c1ccccc1`, for which the “% Inhibition” value was -16% and the Z score is recorded as 1.94.

As for `O=C(c1cc(-c2cccc(F)c2)ns1)N1CCN(c2ccc(F)cc2)CC1`, the “% Inhibition” value is listed as -13% and the Z score was determined as 1.66.

Regarding `Cc1cc(-n2cnnc2[C@H](C)n2cccn2)n(C)n1`, the “% Inhibition” value is given as 10% and the Z score is reported as -1.35.

With `COc1ccc(F)c(F)c1C(=O)NC[C@H]1CCCN(C(=O)c2cccc(N)n2)C1`, the “% Inhibition” value is -7% and the Z score is recorded as 1.26.

Turning to `O=C(NC1CCCN(CC(F)(F)F)C1)OCC1CCCO1` (centres undefined), the “% Inhibition” value is 5% and the Z score was -0.6.

Turning to `CN(Cc1ccco1)C(=O)CCc1ccc(-c2ccccc2)[nH]1`, the “% Inhibition” value is recorded as -1% and the Z score was 0.11.

In the case of `COc1cccc(CN2CCc3cc(OC)c(OC)cc3C2C(C)NC(=O)c2ccc(C)cc2)c1` (centres undefined), the “% Inhibition” value is -12% and the Z score came out at 1.47.

As for `O=C(Nc1cccc(O)c1F)[C@H]1COCC(=O)N1Cc1ccccc1`, the “% Inhibition” value was -5% and the Z score is on record as 0.81.

Consider `COCc1cn([C@H]2CCN(S(=O)(=O)c3cccc(C(F)(F)F)c3)C2)nn1`, for which the “% Inhibition” value was -3% and the Z score is 0.51.

For `NC(=O)c1ccccc1NC(=O)CN(C[C@H]1CCOC1)C1CC1`, the “% Inhibition” value came out at 8% and the Z score is -1.01.

For the molecule `c1ccc2c(c1)CCN(Cc1ncon1)C2`, the “% Inhibition” value is reported as -8% and the Z score is 1.59.

As to `COc1cc2c(cc1OC)CN(C(=O)c1ccc(N3CCOCC3)nc1)CC2`, the “% Inhibition” value is 2% and the Z score was -0.32.

In the case of `CCC(O)(CNC(=O)C1CCc2[nH]nnc2C1)c1ccc(Cl)cc1` (centres undefined), the “% Inhibition” value is -1% and the Z score turned out to be 0.24.

`COc1ccccc1C(=O)NC[C@H]1Cn2cc(-c3ccc(C)cc3)nc2CO1`: the “% Inhibition” value is listed as -2% and the Z score worked out at 0.33.

For the molecule `O=C1CC[C@H](C(=O)NCc2nc(-c3cccc(F)c3)c(-c3ccccn3)[nH]2)N1`, the “% Inhibition” value is given as -17% and the Z score was 2.96.

`O=C(CCN(CCCN1CCOCC1)c1nc(-c2ccco2)nc2ccccc12)Nc1ccc(F)cc1`: the “% Inhibition” value was -18% and the Z score was 2.54.

With `Cc1ccc(S(=O)(=O)N2CCN(C(=O)[C@@H]3CCCN3C(=O)OC(C)(C)C)CC2)cc1`, the “% Inhibition” value was -10% and the Z score is on record as 1.28.

Take `Nc1ncnc(N2C[C@@H](F)C[C@H]2CO)c1Cl`: the “% Inhibition” value stood at 8% and the Z score is -1.1.

With `O=C(c1cncnc1)N1CC[C@H](c2nc3cc(F)ccc3[nH]2)C1`, the “% Inhibition” value stood at 20% and the Z score is given as -2.34.

As to `COc1ccc2c(c1)C[C@@H](NC1CCN(C(=O)Nc3ccccc3)CC1)CC2`, the “% Inhibition” value is listed as -4% and the Z score is 0.82.

With `COc1ccc(NC(=O)COc2c[nH]c(C)cc2=O)cc1N1CCCCS1(=O)=O`, the “% Inhibition” value is -3% and the Z score was 0.42.

In the case of `CNCC(=O)Nc1ccc(-c2ccc(C)c(C(F)(F)F)c2)cn1`, the “% Inhibition” value worked out at 4% and the Z score is on record as -0.36.
